Laboratory results from PubChem BioAssay AID1794842 (National Center for Advancing Translational Sciences (NCATS), 2023).
Hit rate of the full screen: of about 2,800 compounds, fewer than 10 were called active. Calls come from the whole dose curve; as a rule, active = well fitted curve in the direction sought with a large enough effect; inconclusive = small, poorly fitted or top-dose-only effect, or another doubt; inactive = no such curve, though single readings can be large or run the other way. The list shows a part of the results.

target: Metallo-beta-lactamase type 2 (Klebsiella pneumoniae) (UniProt C7C422); experiment: qHTS to identify inhibitors of the New Delhi Metallo-beta-lactamase (NDM): Meropenem screen against the machine-based learning selections.; note: % of control where 0% means no effect; conditions: Purified NDM-1, meropenem hydrolysis, absorbance 300 nm; at 38.4 µM (top of the series) unless noted
Text: Assay Submitter (PI): James Inglese Ph.D., Patricia Dranchak Ph.D., Mahesh Aitha Ph.D. Assay Development and Screening Technology Laboratory (ADST) National Center for Advancing Translational Sciences (NCATS), Rockville, MD National Institute of Health (NIH), Bethesda, Maryland The metallo-beta-lactamases (MBL) are a main antibiotic resistance mechanism evolved by bacteria. There is an urgent clinical need for MBL inhibitors to mitigate this growing threat. To support a machine-based learning study, qHTS has been used to experimentally test inhibitors identified by prediction tools.
PROTOCOL TABLE (as described by Inglese et al., 2007) SEQUENCE No. (e.g., 1, 2, 3, etc.); […] (e.g., enzyme, Incubation, Reagent, etc.); VALUE; DESCRIPTION Primary Screen 1; NDM-1; 4 uL of 3 nM enzyme [2 nM final] in 50 mM HEPES (pH 7.0), 1 uM […], 0.01% Tween20; Use BioRaptr to dispense into two sets of Aurora black, clear bottom high base 1536-well plates 2; Compounds; 23 nL; Use Pin Tool (Wako) to transfer DMSO control and library compounds in DMSO 3; Incubate; >30 min 4a; Reagent; 2 uL of 50 uM nitrocefin [16.7 uM final] to one set of assay plates 4b; Reagent; 2 uL of 150 uM meropenem [50 uM final] to second set of assay plates 5a; Incubate; 15 min 5b; Incubate; 30 min 6a; Detector; Absorbance at 485 nm (bandwidth = 5 nm, 25 flashes/well) on Tecan Infinity 6b; Detector; Absorbance at 300 nm (bandwidth = 5 nm, 25 flashes/well) on Tecan Infinity NOTES (numbers refer to sequence above) 1; Column 1 of each plate received assay buffer without enzyme and columns 2-48 received enzyme for a final assay concentration of 2 nM. 2; Control plate contained DMSO in columns 1, 2, 3, and 4. 3; Compound interaction with enzyme. 4; Nitrocefin and meropenem substrates were prepared in the same assay buffer as step 1 for a final assay concentration of 16.7 uM and 50 uM, respectively, and added to all wells across respective sets of assay plates. 5; Default reader settings were applied for absorbance read at 485 nm (nitrocefin) or 300 nm (meropenem), bandwidth = 5 nm, 25 flashes/well. References: Inglese J, Shamu CE, Guy RK. 2007. Reporting data from high-throughput screening of small-molecule libraries. Nat Chem Biol. doi:10.1038/nchembio0807-438 Yasgar A, Shinn P, Jadhav A, Auld D, Michael S, Zheng W, Austin CP, Inglese J, Simeonov A. 2008. Compound Management for Quantitative High-Throughput Screening. J Lab Autom 13:79 - 89. doi:10.1016/j.jala.2007.12.004

Chain of UniProt C7C422 (C7C422 whole entry, looked up): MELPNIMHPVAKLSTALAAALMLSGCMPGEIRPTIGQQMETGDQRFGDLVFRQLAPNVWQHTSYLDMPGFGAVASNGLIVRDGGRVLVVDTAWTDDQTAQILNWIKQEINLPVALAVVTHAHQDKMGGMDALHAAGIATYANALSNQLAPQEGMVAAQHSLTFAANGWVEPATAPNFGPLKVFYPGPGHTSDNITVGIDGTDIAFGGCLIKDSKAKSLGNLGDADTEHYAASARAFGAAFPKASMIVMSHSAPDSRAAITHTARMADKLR

Activity change, negative = inhibition, inactive:
O=c1cc(-c2cccnc2)oc2c(-c3ccccc3O)nccc12 17.2% [at 57.5 µM]
O=C1Nc2ccc(-c3cccs3)cc2C(=O)N2CC[C@H](NS(=O)(=O)c3ccc(Cl)cc3)C[C@@H]12 0.0233%
O=C(NCc1ccccc1)O[C@@H]1CO[C@H]2[C@@H]1OC[C@@H]2Nc1nccc(-c2ccc3c(c2)OCO3)n1 -0.584%
O=C1Cc2c(-c3cccc(CO)c3)n[nH]c2CN1CC1CC1 30.1% [at 57.5 µM]
NC(=O)COc1ccc(C(=O)N[C@@H]2CN(C(=O)NC3CCCCC3)CCC[C@H]2O)cc1 0.417% [at 57.5 µM]
N#Cc1cccc(C2CCN(C(=O)C3CCN(C(=O)C4CC4)CC3)CC2)c1 1.93%
Cc1cccc(Cl)c1NC(=O)N1CCC2(CC1)C(C(=O)O)CC(=O)N2C (centres undefined) 13.3%
CC(C)(CNc1ccc(-c2nc(C3CC3)no2)cn1)N1CCOCC1 8.76%
O=C(c1cccc(-n2cnnc2)c1)N1CCCCCC1c1cccc(F)c1 (centres undefined) -1.1%
CCc1noc(-c2cn(C3CCN(C(=O)c4ccc(C)c(C)c4)CC3)nn2)n1 -0.0517%
COc1ccccc1CN1CC(c2noc(-c3ccc(C)cc3C)n2)CC1=O (centres undefined) -1.43%
Cc1noc([C@@H]2CN(C(=O)c3cc(C)n(Cc4ccco4)c3C)C[C@H]2C(N)=O)n1 0.991%
CC(C)C[C@@H]1N[C@H](C(=O)NCc2cccs2)Cc2cn(CC3CC3)c3cccc1c23 26.7% [at 57.5 µM]
CC1(C(=O)NCc2cccnc2)CCc2cnc(Nc3ccccc3)nc21 (centres undefined) -4.41% [at 57.5 µM]
O=C(N[C@H](c1cccs1)C1CC(O)C1)c1cccc(-n2cccn2)c1 (some centres undefined) -0.869%
Nc1ncccc1CN1CC[C@@H]2OCC(=O)N(Cc3ccc(O)cc3)[C@H]2CC1 -5.12% [at 57.5 µM]
Cc1ccc(O)c(CN2CC[C@@H](c3ccc(F)cc3)[C@H](O)C2)c1 2.68%
Cc1ccc(CNC(=O)CN2CC3CC(C2)[C@H]2CCCC(=O)N2C3)cc1 (some centres undefined) -1.93%
COc1cccc(S(=O)(=O)N2CCC(n3cnnc3-c3ccccc3)CC2)c1 1.49%
CN(Cc1cc(C[C@H]2CNCC[C@H]2CC(=O)N2CCN(c3ccccc3)CC2)no1)c1ccccc1 0.828%
Cc1nc(N(C)C)ncc1C(=O)NC(C(=O)O)c1c(C)n[nH]c1C (centres undefined) -0.198%
COc1ccc(-c2cc(N3CCCN(C(=O)c4cnccn4)CC3)n[nH]2)cc1 -1.74%
Cc1ccc2nc(C3CCN(Cc4cccc(-c5ccsc5)c4)CC3)[nH]c(=O)c2c1 3.46%
CSCC(=O)N[C@H]1CCN2C(=O)c3ccccc3NC(=O)[C@H]12 -0.923% [at 57.5 µM]
N#Cc1cccc(CN[C@H]2[C@H](O)[C@H](O)C[C@@H]2c2ccc(N3CCOCC3)nc2)c1 2.45% [at 57.5 µM]
O=C(O)[C@H]1C[C@H](C(=O)NCc2ccccn2)CN(Cc2ccccc2)C1 44%
CN1CCN(c2nc3c(c(=O)[nH]2)CCN(Cc2ccccc2C(F)(F)F)CC3)CC1 39.8%
COC(=O)[C@H](NC(=O)C1=C[C@@H](NC(=O)Nc2cccc(F)c2)[C@@H](O)[C@H](O)C1)C(C)C -0.477% [at 57.5 µM]
Cc1n[nH]c(C)c1CCC(=O)N1CCCC(c2ccc(C(=O)O)cc2)C1 (centres undefined) 1.52%
CNC(=O)[C@@H](c1ccc(Cl)cc1)N1CCC[C@H]1C(=O)NC(C)(C)C 50.1% [at 57.5 µM]
O=C1CC(C(=O)O)C2(CCN(c3ncc(C(=O)O)cc3Cl)CC2)N1 (centres undefined) 7.33%
Fc1ccc(CNC[C@H]2Cn3c(-c4ccc5c(c4)OCCO5)cnc3CO2)cc1 8.05% [at 57.5 µM]
O=C(NCCc1ccccc1)c1cnc2c(c1)N([S+](=O)([O-])c1cccnc1)CCC2 2.85% [at 57.5 µM]
Cc1ccc(-c2cc(N3CCCN(C(=O)CCc4ccccc4)CC3)n[nH]2)cc1C 0.387%
O=C(Cc1csc(-c2ccccc2)n1)N[C@H](c1ccccn1)C1CC(O)C1 (some centres undefined) 7.84%
CN1C[C@@H](NC(=O)Nc2ccccc2)C[C@H]1c1nc(-c2ccc(F)cc2)no1 -3.71% [at 57.5 µM]
CC(C)(Cc1ccc(F)cc1)NC(=O)C1CCC(=O)N(Cc2ccccn2)C1 (centres undefined) 2.22%
O=C(CCc1ccccc1)N1CCNc2cnc(Nc3cccnc3)nc2C1 10.5% [at 57.5 µM]
CC(C)(C)c1ccc(-c2cc(C[C@H]3CNCC[C@H]3CC(=O)NCc3cccnc3)no2)cc1 25.1%
COCCCNC(=O)N1CC(c2nc(CCOCC3CCOCC3)no2)C1 -0.818%
Cc1cccc(-c2cnc3[nH]cc(CC(N)=O)c3c2)c1 6.74% [at 76.7 µM]
COc1ccc(CN2Cc3[nH]cnc3C[C@H]2c2nc(-c3ccc(C(F)(F)F)cc3)no2)cc1 25.5%
COc1cc(C)c2c(c1C)C[C@H](C(C)C(=O)NCc1ccco1)CC2 (some centres undefined) 10.3% [at 57.5 µM]
OC1(CN2CCCN(c3nc4ccccc4s3)CC2)CNCCOC1 (centres undefined) 49.5%
CCCCc1cc(C[C@@H]2C[C@H](NC(=O)NCC)C2(C)C)no1 -2.11% [at 57.5 µM]
Fc1ccc(C2Cn3nnc(-c4nc(-c5ccc6c(c5)OCO6)no4)c3CO2)cc1 (centres undefined) 1.39%
c1ccc(CN2CCNc3cc(Nc4ccc(N5CCOCC5)cc4)ncc3C2)cc1 0.572% [at 57.5 µM]
O=C1CCC(CNC(=O)c2nc(-c3ccccc3)cc3[nH]ccc23)N1 (centres undefined) 8.63% [at 57.5 µM]
CC(=O)N1CCC(N2CC[C@H](c3nc4ncccc4[nH]3)C2)CC1 2.9% [at 57.5 µM]
